The values below come from PMC3660009 (Molecular cell, 2013).

The target in the assay is T1, GST-tagged 3xMBT (the three MBT repeats of L3MBTL1, amino acids 190-530) (UniProt Q9Y468-1 190-530).
T1 sequence (looked up): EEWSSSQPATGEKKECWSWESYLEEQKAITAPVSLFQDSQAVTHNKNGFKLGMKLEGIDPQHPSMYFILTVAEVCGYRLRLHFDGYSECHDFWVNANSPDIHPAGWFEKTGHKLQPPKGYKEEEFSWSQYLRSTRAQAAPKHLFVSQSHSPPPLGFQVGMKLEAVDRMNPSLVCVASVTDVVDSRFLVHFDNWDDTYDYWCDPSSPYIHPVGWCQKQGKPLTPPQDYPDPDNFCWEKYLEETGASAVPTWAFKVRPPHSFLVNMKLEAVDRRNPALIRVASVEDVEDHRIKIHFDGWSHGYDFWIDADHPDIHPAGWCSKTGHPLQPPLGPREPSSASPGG
Description: pull-down.

B1: p53K382me1 peptide (p53 […]) (peptide)
peptide: not shown
modifications: monomethyl-lysine at 382; biotin (position not given)
As to B1, the binding result is reported as “binds”.

B2: p53K382me2 peptide (p53 […]) (peptide)
peptide: not shown
modifications: dimethyl-lysine at 382; biotin (position not given)
Consider B2, for which the binding result is “binds”.
